For 28 molecules, cell count results are on record in the supplement of paper PMC4604168 (melanoma cell lines).

The structures appear in SMILES notation. The list shows a part of the results. Many values rest on one well or one pass, so single values are uncertain.
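Also: cell number obtained by counting DAPI-stained nuclei in high-throughput microscope images with image analysis software, screen run in 1,536-well plates.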

The first assay concerns COLO829. Description: cell count relative to DMSO control; melanoma cells; higher = more viable cells. To be noted: library dose: low library concentration; 72 h.
On to `Nc1nc(F)nc2c1ncn2[C@@H]1O[C@H](CO)[C@@H](O)[C@@H]1O` [fludarabine] + CN(NC(=O)CC(=O)NN(C)C(=S)c1ccccc1)C(=S)c1ccccc1 [STA4783] (first compound 0.2 µM, partner dose 0.006 µM), for which the cell count came to 74.9%.
In turn, `Nc1ncn([C@H]2C[C@H](O)[C@@H](CO)O2)c(=O)n1` [decitabine] + c1cc(-c2cnn3cc(-c4ccc(OCCN5CCCCC5)cc4)cnc23)ccn1 [Dorsomorphin] (first compound 0.1 µM, partner dose 0.4 µM) registered a cell count of 102%.
In turn, `CC(=O)c1c(C)c2cnc(Nc3ccc(N4CCNCC4)cn3)nc2n(C2CCCC2)c1=O` [palbociclib] + COc1cc(N2CCC(N3CCN(C)CC3)CC2)ccc1Nc1ncc(Cl)c(Nc2ccccc2S(=O)(=O)C(C)C)n1 [NVP-TAE684] (first compound 0.04 µM, partner dose 0.08 µM) showed a cell count of 94.4%.
`CC(=O)O[C@@]12CO[C@@H]1C[C@H](O)[C@@]1(C)C(=O)[C@H](O)C3=C(C)[C@@H](OC(=O)[C@H](O)[C@@H](NC(=O)OC(C)(C)C)c4ccccc4)C[C@@](O)([C@@H](OC(=O)c4ccccc4)[C@H]21)C3(C)C` [Docetaxel] + CCCCCCCCCCCC1=C(O)C(=O)C=C(O)C1=O [Embelin] (first compound 0.0001 µM, partner dose 1.2 µM): the cell count was 56.9%.
Molecule `Nc1nc(F)nc2c1ncn2[C@@H]1O[C@H](CO)[C@@H](O)[C@@H]1O` [fludarabine] + NCC(=O)Nc1ccc(-n2nc(C(F)(F)F)cc2-c2ccc3c(ccc4ccccc43)c2)cc1 [OSU03012] (first compound 0.2 µM, partner dose 1 µM) yielded a cell count of 85.3%.
The molecule `Nc1ccn([C@@H]2O[C@H](CO)[C@@H](O)C2(F)F)c(=O)n1` [gemcitabine] + COc1cc(Nc2ncc(F)c(Nc3ccc4c(n3)NC(=O)C(C)(C)O4)n2)cc(OC)c1OC [Tamatinib] (first compound 0.0004 µM, partner dose 0.4 µM) yielded a cell count of 69.1%.
`Nc1nc(F)nc2c1ncn2[C@@H]1O[C@H](CO)[C@@H](O)[C@@H]1O` [fludarabine] + COc1cc(N2CCC(N3CCN(C)CC3)CC2)ccc1Nc1ncc(Cl)c(Nc2ccccc2S(=O)(=O)C(C)C)n1 [NVP-TAE684] (first compound 0.2 µM, partner dose 0.08 µM) registered a cell count of 112%.
Still for that read-out and setting: the result for `Nc1ncn([C@H]2C[C@H](O)[C@@H](CO)O2)c(=O)n1` [decitabine] + COc1cc(Nc2ncc(F)c(Nc3ccc4c(n3)NC(=O)C(C)(C)O4)n2)cc(OC)c1OC [Tamatinib] (first compound 0.1 µM, partner dose 0.4 µM) reads 70.7%; that for `Nc1ccn([C@@H]2O[C@H](CO)[C@@H](O)C2(F)F)c(=O)n1` [gemcitabine] + Cc1ccc(NC(=O)c2cccc(N(C)C)c2)cc1NC(=O)c1ccc(O)cc1 [ZM336372] (first compound 0.0004 µM, partner dose 2 µM), 97.4%; that for `Nc1ncn([C@H]2C[C@H](O)[C@@H](CO)O2)c(=O)n1` [decitabine] + NCC(=O)Nc1ccc(-n2nc(C(F)(F)F)cc2-c2ccc3c(ccc4ccccc43)c2)cc1 [OSU03012] (first compound 0.1 µM, partner dose 1 µM), 76.5%.

A further assay deals with G361. Described as above. To be noted: library dose: low library concentration; 72 h.
Regarding `Nc1ncn([C@H]2C[C@H](O)[C@@H](CO)O2)c(=O)n1` [decitabine] + CC(C)CCN1c2nc(Nc3cc(F)c(O)c(F)c3)ncc2N(C)C(=O)C1C [BID1870] (first compound 0.1 µM, partner dose 0.2 µM), the cell count was found to be 90.2%.
Molecule `Nc1ccn([C@@H]2O[C@H](CO)[C@@H](O)C2(F)F)c(=O)n1` [gemcitabine] + CC(C)CCN1c2nc(Nc3cc(F)c(O)c(F)c3)ncc2N(C)C(=O)C1C [BID1870] (first compound 0.0004 µM, partner dose 0.2 µM) displayed a cell count of 93.9%.
`Nc1ncn([C@H]2C[C@H](O)[C@@H](CO)O2)c(=O)n1` [decitabine] + CC1(C)NC(=O)N(c2ccc([N+](=O)[O-])c(C(F)(F)F)c2)C1=O [nilutamide] (first compound 0.1 µM, partner dose 1 µM) came in with a cell count of 90.2%.
`CC(=O)O[C@@]12CO[C@@H]1C[C@H](O)[C@@]1(C)C(=O)[C@H](O)C3=C(C)[C@@H](OC(=O)[C@H](O)[C@@H](NC(=O)OC(C)(C)C)c4ccccc4)C[C@@](O)([C@@H](OC(=O)c4ccccc4)[C@H]21)C3(C)C` [Docetaxel] + CCc1ccc(CCOc2ccc(CC3SC(=O)NC3=O)cc2)nc1 [pioglitazone] (first compound 0.0001 µM, partner dose 2 µM): the cell count came to 44%.
In turn, `Nc1ncn([C@H]2C[C@H](O)[C@@H](CO)O2)c(=O)n1` [decitabine] + Cc1cc(N2CCOCC2)cc2[nH]c(-c3c(NC[C@@H](O)c4cccc(Cl)c4)cc[nH]c3=O)nc12 [BMS536924] (first compound 0.1 µM, partner dose 0.2 µM) displayed a cell count of 83.9%.
Same read-out and setting: the result for `Nc1ncn([C@H]2C[C@H](O)[C@@H](CO)O2)c(=O)n1` [decitabine] + O=S(=O)(c1ccccc1)N(CC(F)(F)F)c1ccc(C(O)(C(F)(F)F)C(F)(F)F)cc1 [T0901317] (first compound 0.1 µM, partner dose 1.4 µM) reads 73.2%.
Same read-out and setting: the result for `Nc1ncn([C@H]2C[C@H](O)[C@@H](CO)O2)c(=O)n1` [decitabine] + COc1cc(N2CCC(N3CCN(C)CC3)CC2)ccc1Nc1ncc(Cl)c(Nc2ccccc2S(=O)(=O)C(C)C)n1 [NVP-TAE684] (first compound 0.1 µM, partner dose 0.08 µM) reads 94.7%.
`CC(=O)c1c(C)c2cnc(Nc3ccc(N4CCNCC4)cn3)nc2n(C2CCCC2)c1=O` [palbociclib] + Oc1nc(-c2ccc(C(F)(F)F)cc2)nc2c1CSCC2 [XAV939] (first compound 0.04 µM, partner dose 2 µM) gave a cell count of 80.2%.
As to `Nc1ccn([C@@H]2O[C@H](CO)[C@@H](O)C2(F)F)c(=O)n1` [gemcitabine] + O=c1cc(-c2cccc3c2Sc2ccccc2S3)oc(N2CCOCC2)c1 [KU55933] (first compound 0.0004 µM, partner dose 1 µM), the cell count is 107%.
Molecule `Nc1ncn([C@H]2C[C@H](O)[C@@H](CO)O2)c(=O)n1` [decitabine] + N#Cc1c(O)c2c(-c3ccc(-c4ccccc4O)cc3)csc2[nH]c1=O [A769662] (first compound 0.1 µM, partner dose 2 µM) came in with a cell count of 95.8%.
On to `Nc1nc(F)nc2c1ncn2[C@@H]1O[C@H](CO)[C@@H](O)[C@@H]1O` [fludarabine] + CN(C)S(=O)(=O)c1ccc2c(c1)/C(=C/c1cc3c([nH]1)CCCC3)C(=O)N2 [SU6656] (first compound 0.2 µM, partner dose 0.4 µM), for which the cell count is 82.1%.
The molecule `Nc1ncn([C@H]2C[C@H](O)[C@@H](CO)O2)c(=O)n1` [decitabine] + CCc1ccc(CCOc2ccc(CC3SC(=O)NC3=O)cc2)nc1 [pioglitazone] (first compound 0.1 µM, partner dose 2 µM) registered a cell count of 98.5%.
Regarding `CC(=O)c1c(C)c2cnc(Nc3ccc(N4CCNCC4)cn3)nc2n(C2CCCC2)c1=O` [palbociclib] + CN(NC(=O)CC(=O)NN(C)C(=S)c1ccccc1)C(=S)c1ccccc1 [STA4783] (first compound 0.04 µM, partner dose 0.006 µM), the cell count worked out at 78.1%.
Take `CC(=O)O[C@@]12CO[C@@H]1C[C@H](O)[C@@]1(C)C(=O)[C@H](O)C3=C(C)[C@@H](OC(=O)[C@H](O)[C@@H](NC(=O)OC(C)(C)C)c4ccccc4)C[C@@](O)([C@@H](OC(=O)c4ccccc4)[C@H]21)C3(C)C` [Docetaxel] + CS(=O)(=O)CCNCc1ccc(-c2ccc3ncnc(Nc4ccc(OCc5cccc(F)c5)c(Cl)c4)c3c2)o1 [lapatinib] (first compound 0.0001 µM, partner dose 0.8 µM): the cell count was 21.7%.
For `CC(=O)O[C@@]12CO[C@@H]1C[C@H](O)[C@@]1(C)C(=O)[C@H](O)C3=C(C)[C@@H](OC(=O)[C@H](O)[C@@H](NC(=O)OC(C)(C)C)c4ccccc4)C[C@@](O)([C@@H](OC(=O)c4ccccc4)[C@H]21)C3(C)C` [Docetaxel] + c1cc(-c2cnn3cc(-c4ccc(OCCN5CCCCC5)cc4)cnc23)ccn1 [Dorsomorphin] (first compound 0.0001 µM, partner dose 0.4 µM), the cell count was 17.6%.
On to `CO[C@H]1C[C@@H]2CC[C@@H](C)[C@@](O)(O2)C(=O)C(=O)N2CCCC[C@H]2C(=O)O[C@H]([C@H](C)C[C@@H]2CC[C@@H](OCCO)[C@H](OC)C2)CC(=O)[C@H](C)/C=C(\C)[C@@H](O)[C@@H](OC)C(=O)[C@H](C)C[C@H](C)/C=C/C=C/C=C/1C` [everolimus] + COc1cc2ncnc(Nc3ccc(Oc4ccccc4)cc3)c2cc1OC [SrcI1] (first compound 0.02 µM, partner dose 2 µM), for which the cell count came out at 69.4%.
The molecule `Nc1ncn([C@H]2C[C@H](O)[C@@H](CO)O2)c(=O)n1` [decitabine] + COC(=O)c1sccc1S(=O)(=O)Nc1ccc(Nc2ccccc2)cc1OC [GSK0660] (first compound 0.1 µM, partner dose 1 µM) came in with a cell count of 84%.
Turning to `Nc1nc(F)nc2c1ncn2[C@@H]1O[C@H](CO)[C@@H](O)[C@@H]1O` [fludarabine] + CCN(CC)CCCCNc1ncc2cc(-c3cc(OC)cc(OC)c3)c(NC(=O)NC(C)(C)C)nc2n1 [PD173074] (first compound 0.2 µM, partner dose 0.1 µM), the cell count was 109%.
